{"source": "paper PMC6919601", "about": "“Identification of Plasmodium dipeptidyl aminopeptidase allosteric inhibitors by high throughput screening” (PLoS ONE, 2019)", "note": "The campaign covered roughly 110,000 compounds. About 230 (0.21%) showed an effect of 50% or more. Some of the results follow.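 Also: 30 min substrate incubation versus DMSO and 10 µM JCP410 controls.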"}
{"molecular_target": "DPAP1 (Plasmodium falciparum, UniProt Q8IIJ9)", "sequence (Q8IIJ9 whole entry, looked up)": "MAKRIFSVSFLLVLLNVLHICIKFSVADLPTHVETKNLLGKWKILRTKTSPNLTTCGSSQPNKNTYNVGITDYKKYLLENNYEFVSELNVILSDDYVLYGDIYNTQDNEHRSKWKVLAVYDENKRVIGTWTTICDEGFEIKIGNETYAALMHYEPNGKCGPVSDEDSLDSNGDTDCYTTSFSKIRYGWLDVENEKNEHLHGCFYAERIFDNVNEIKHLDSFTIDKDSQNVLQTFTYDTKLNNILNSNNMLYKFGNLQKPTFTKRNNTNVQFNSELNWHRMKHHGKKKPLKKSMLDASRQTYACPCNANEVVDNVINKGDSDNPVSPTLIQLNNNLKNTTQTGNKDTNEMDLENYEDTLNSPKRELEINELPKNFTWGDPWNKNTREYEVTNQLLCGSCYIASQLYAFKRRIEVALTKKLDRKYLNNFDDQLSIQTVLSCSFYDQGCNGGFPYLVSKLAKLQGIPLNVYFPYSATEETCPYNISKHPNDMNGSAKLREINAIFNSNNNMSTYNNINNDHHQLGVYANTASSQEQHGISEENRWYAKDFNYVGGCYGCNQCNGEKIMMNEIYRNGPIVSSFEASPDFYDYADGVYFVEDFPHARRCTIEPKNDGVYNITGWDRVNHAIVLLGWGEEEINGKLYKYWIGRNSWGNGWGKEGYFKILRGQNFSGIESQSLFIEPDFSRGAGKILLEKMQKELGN", "assay": "primary screen, percent inhibition; read by cleavage of a fluorogenic dipeptide substrate; higher = more effect of the substance", "design": "species or system P. falciparum D10 trophozoite lysates; single well", "units": {"% Inhibition @ 10 uM": "%"}}
{"smiles": "O=C1C(Nc2cccc(Br)c2)=C(N2CCCCC2)C(=O)c2ccccc21", "% Inhibition @ 10 uM": 1.84}
{"smiles": "O=C(CCc1nc2cccnc2n1-c1ccccc1)NCCc1ccccc1", "% Inhibition @ 10 uM": -4.74}
{"smiles": "CC1CCCN(C(C(=O)NC2CCCC2)c2ccc(Cl)cc2)C1", "note": "(stereo not shown)", "% Inhibition @ 10 uM": 5.11}
{"smiles": "Cc1cccc(C)c1OCC(=O)Nc1ccc(S(=O)(=O)NC(C)(C)C)cc1", "% Inhibition @ 10 uM": -2.28}
{"smiles": "O=C(NCc1cccs1)c1cc(-c2ccc(Cl)cc2)n[nH]1", "% Inhibition @ 10 uM": 1.94}
{"smiles": "COc1cc(C2=N/C(=C\\c3ccc(C(C)(C)C)cc3)C(=O)O2)cc(OC)c1OC", "% Inhibition @ 10 uM": 84.3}
{"smiles": "Cc1oc2ncn(C)c(=O)c2c1C(=O)N(CCN(C)C)Cc1ccco1", "% Inhibition @ 10 uM": 1.58}
{"smiles": "CCOc1cc(/C=C2/SC(N3CCOCC3)=NC2=O)ccc1O", "% Inhibition @ 10 uM": -1.08}
{"smiles": "O=C1CC(c2cccs2)c2c(O)nc3ccccc3c2O1", "note": "(stereo not shown)", "% Inhibition @ 10 uM": 2.77}
{"smiles": "COc1ccccc1NC(=O)CSc1nc(-c2ccc(OC)c(OC)c2)ccc1C#N", "% Inhibition @ 10 uM": 4.28}
{"smiles": "CSc1ncc(C(=O)NCc2ccc(C)cc2)c(C(F)(F)F)n1", "% Inhibition @ 10 uM": 0.776}
{"smiles": "FC(F)(F)c1cccnc1N1CCN(c2ncnc3[nH]cnc23)CC1", "% Inhibition @ 10 uM": 0.221}
{"smiles": "CCNC1(c2ccccc2)C(=O)c2ccccc2C1=O", "% Inhibition @ 10 uM": -0.25}
{"smiles": "CCC(C)NC(=O)c1cc2cc3ccc(OC)cc3nc2s1", "note": "(stereo not shown)", "% Inhibition @ 10 uM": -0.704}
{"smiles": "CCOC(=O)c1c(C)c(C(=O)NCCC2=CCCCC2)c(C)n1CC", "% Inhibition @ 10 uM": -3.44}
{"smiles": "Cc1cc(C(F)(F)F)nc(NC(=O)NC(=O)c2cccc(F)c2)n1", "% Inhibition @ 10 uM": 0.475}
{"smiles": "O=C(CN1C(=O)C(c2ccccc2)Oc2cccnc21)NCc1ccccc1Cl", "note": "(stereo not shown)", "% Inhibition @ 10 uM": 11.9}
{"smiles": "COc1ccc2c(C)c(C(=O)NCCNC(=O)c3oc4c(OC)c(OC)ccc4c3C)oc2c1OC", "% Inhibition @ 10 uM": 1.7}
{"smiles": "O=C1c2ccccc2C(=O)c2c1n[n+]([O-])n2CCCN1CCOCC1", "% Inhibition @ 10 uM": -2.79}
{"smiles": "NC(=O)c1cc(S(=O)(=O)N2CCc3ccccc3C2)cs1", "% Inhibition @ 10 uM": -5.57}
{"smiles": "CC1CCCN(S(=O)(=O)c2cccc3nonc23)C1", "note": "(stereo not shown)", "% Inhibition @ 10 uM": -2.36}
{"smiles": "Cc1nc2c3ccccc3n3c(CCCC(=O)NCCc4ccc(S(N)(=O)=O)cc4)nnc3n2n1", "% Inhibition @ 10 uM": 0.44}
{"smiles": "CC(=O)N1N=C(c2ccc(C)cc2)CC1c1cc2cc3c(cc2nc1Cl)OCO3", "note": "(stereo not shown)", "% Inhibition @ 10 uM": 3.87}
{"smiles": "COCc1[nH]nc2c1C(c1ccco1)C(C#N)=C(N)O2", "note": "(stereo not shown)", "% Inhibition @ 10 uM": 3.05}
{"smiles": "O=C(CN1C(=O)c2cccc3cccc1c23)NCc1cccnc1", "% Inhibition @ 10 uM": -6.05}
{"smiles": "O=c1c2c(nc3n1CCCS3)-c1ccccc1CC21CCCCC1", "% Inhibition @ 10 uM": -5.62}
{"smiles": "Cc1nn(C(C)C(=O)NCc2ccco2)c2ccccc12", "note": "(stereo not shown)", "% Inhibition @ 10 uM": 0.596}
{"smiles": "CCc1ccc(NC(=O)c2cccc(C)c2)cc1", "% Inhibition @ 10 uM": 2.22}
{"smiles": "Cc1ccccc1CN1C[C@@H]2C[C@H](C1)c1cccc(=O)n1C2", "% Inhibition @ 10 uM": 3.42}
{"smiles": "FC(F)(F)C1(C(F)(F)F)N=C(c2ccncc2)OC(c2ccco2)=N1", "% Inhibition @ 10 uM": -11.5}
{"smiles": "CC(=O)Nc1c(O)nc(SCc2ccc(Br)cc2)nc1O", "% Inhibition @ 10 uM": 22.4}
{"smiles": "CCCCO/C(O)=C1\\C(C)=NC2=C(C(=O)CCC2)C1c1ccccc1OCC", "note": "(stereo not shown)", "% Inhibition @ 10 uM": 11.6}
{"smiles": "COc1ccccc1CC(=O)Nc1cc(OC)c(NC(=O)c2ccccc2)cc1OC", "% Inhibition @ 10 uM": -3.41}
{"smiles": "O=c1[nH]c(/C=C/c2ccc(Cl)cc2Cl)c([N+](=O)[O-])c(=O)[nH]1", "% Inhibition @ 10 uM": 1}
{"smiles": "CCC(C)NC(=O)c1ccc(-c2nc(CS(=O)(=O)c3ccc(C)cc3)c(C)o2)cc1", "note": "(stereo not shown)", "% Inhibition @ 10 uM": -1.3}
{"smiles": "COc1ccc(C(=O)C2=C(O)C(=O)N(Cc3ccncc3)C2c2ccccc2F)cc1", "note": "(stereo not shown)", "% Inhibition @ 10 uM": 3.8}
{"smiles": "Cc1cccn2c(=O)c3cc(C(=O)NCc4ccco4)c(=N)n(Cc4ccco4)c3nc12", "% Inhibition @ 10 uM": 4.98}
{"smiles": "CC(C)c1ccccc1OCC(=O)Nc1ccc(S(=O)(=O)N2CCCC2)cc1", "% Inhibition @ 10 uM": -0.795}
{"smiles": "CCOC(=O)c1ccc(-n2c(C)cc(/C=C3\\SC(=O)NC3=O)c2C)cc1", "% Inhibition @ 10 uM": -0.053}
{"smiles": "CCc1cc2c(cc(C(=O)OC)n2Cc2cccc(OC)c2)s1", "% Inhibition @ 10 uM": -6.09}
{"smiles": "O=C(NCCN1CCOCC1)c1cc2nc(-c3ccc(Br)cc3)cc(C(F)(F)F)n2n1", "% Inhibition @ 10 uM": -2.22}
{"smiles": "O=C(NCCc1ccccc1)c1ccccc1NS(=O)(=O)c1ccc(F)cc1", "% Inhibition @ 10 uM": -5.92}
{"smiles": "COCCCNC(=O)c1ccc(CSc2nc3cccnc3n2Cc2cccc(F)c2)cc1", "% Inhibition @ 10 uM": 4.19}
{"smiles": "Cc1cc(=O)oc2cc(OCc3ccccc3F)ccc12", "% Inhibition @ 10 uM": 7.75}
{"smiles": "Cc1ccc2c(Sc3ccc(Cl)cc3)c(C(=O)NCCCN3CCCC3=O)[nH]c2c1", "% Inhibition @ 10 uM": -6.32}
{"smiles": "C/C(O)=C(/C#N)c1nc2ccccc2c2ccccc12", "% Inhibition @ 10 uM": -1.85}
{"smiles": "Cc1ccc(NC(=O)COc2ccc(Cl)cc2Cl)cc1", "% Inhibition @ 10 uM": -5.51}
{"smiles": "N#Cc1c(-c2ccc(Cl)cc2)cc(-c2ccccc2)nc1O", "% Inhibition @ 10 uM": -4.93}
{"smiles": "CCOC(=O)c1c(N)n(-c2ccc(Br)cc2)c2nc3cc([N+](=O)[O-])c([N+](=O)[O-])cc3nc12", "% Inhibition @ 10 uM": 3.31}
